Experimental data published in PubChem BioAssay AID652104 (National Center for Advancing Translational Sciences (NCATS), 2013).
The campaign covered roughly 410,000 compounds. About 7,200 (1.8%) were called active. The shares of active, inactive and inconclusive entries below differ from those in the screen. Calls come from the whole dose curve; as a rule, active = well fitted activation curve with a large enough effect; inconclusive = small, poorly fitted or top-dose-only effect, or another doubt; inactive = no such curve, though single readings can be large or run the other way. Where the call is inconclusive, the potency comes from a doubtful curve fit.

Assay: qHTS of TDP-43 Inhibitors; note: nearly all actives have a fitted effect of over 50% in size; for growth rescue (activation): % of control where 0% means no effect
Details: TDP-43 expressing yeast growth rescue, BacTiter-Glo, 24 h; growth rescue (activation): at 46.1 µM (top of the series) unless noted
Procedure, shortened: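 Luminescence from BacTiter-Glo reports growth of TDP-43-expressing yeast after 24 hr at 30 deg C with compound. Cells were raffinose-pregrown to mid-log, then seeded in galactose medium at OD600=0.02.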
Potency is the fitted concentration of half-maximal effect; tags give direction and shape of the fitted curve.

Growth rescue (activation), inactive:
Cc1cccc(N(C)S(=O)(=O)c2ccc3[nH]cc(C(=O)N4CCOCC4)c(=O)c3c2)c1 5.42%
O=C(Nc1cccc(Cl)c1)c1ccc2ncsc2c1 -17.7%
Cc1ccc(CNC(=O)CCc2c(C)c3cc4c(C)coc4cc3oc2=O)cc1 21.7%
O=C(N/N=C/c1ccc(-c2ccccc2[N+](=O)[O-])o1)[C@H]1C[C@@H]1c1ccccc1 -14.1%
CC1CCCN(c2ccc([N+](=O)[O-])cc2C(=O)c2ccccc2)C1 (configuration not stated) 29.4%
O=C(CSc1nc2ccc(Nc3nc(N4CCOCC4)nc(N4CCOCC4)n3)cc2s1)Nc1ccccc1Cl -9.59%
c1ccc(Cn2c(-c3ccccc3)nc3nc4ccccc4nc32)cc1 23.6%
N#Cc1c(-n2ncnc2-c2ccccc2Cl)sc2c1CCCCC2 23.1%
Cc1ccc(-n2ccn(CC(=O)c3ccc(F)cc3)c(=O)c2=O)cc1C 6.42%
CC(C)(C)S(=O)N1Cc2cc(C(=O)NCc3ccc(Oc4ccccc4)cc3)nc(-c3cccc(-c4cc5ccccc5o4)c3)c2[C@H]1CCO (some centres not stated) 27.9%
CC1CCCN(S(=O)(=O)c2ccc(C(=O)Nc3nnc(-c4ccco4)o3)cc2)C1 (configuration not stated) 27%
Cn1c(SCC(=O)NC2CCCC2)nnc1-c1ccccn1 -1.35%
COc1cc(NC(=O)Cn2c(=O)nc(-c3ccccc3F)c3cc(Cl)ccc32)cc(OC)c1 15.3%
Cc1cc(C)cc(NC(=O)C2CCN(S(=O)(=O)c3c(C)noc3/C=C/c3ccco3)CC2)c1 1.29%

Growth rescue (activation), inconclusive:
CCCCN(CCCC)C1=C(C(=O)c2ccccc2)N(CC)S(=O)(=O)c2ccccc21 -86.3% [activator]

Potency, active:
CCOc1ccc(C2=CC(c3ccccc3)n3ncnc3N2)cc1 (configuration not stated) 17.8 µM
COc1ccccc1-c1cc2nc(NCCOc3ccccc3)ccn2n1 25.1 µM
Cc1cccc(NC(=O)CC2C(=O)OCCN2Cc2ccccc2)c1 (configuration not stated) 14.1 µM
COCCNc1cc(N)c([N+](=O)[O-])cc1[N+](=O)[O-] 11.2 µM
N/C(=N\OC(=O)/C=C/c1ccc(Br)cc1)c1ccccn1 17.8 µM
O=C(NCc1ccco1)c1ccc(-c2ccc(F)c(F)c2)c2ccoc12 20 µM
COc1ccc(CC(=O)c2ccc(O)cc2O)cc1 12.6 µM
O=C(Nc1ccon1)Nc1cccc(Cl)c1Cl 12.6 µM
O=C(c1cc(-c2ccccc2)nc2ccccc12)N1CCc2ccccc2C1 25.1 µM
COc1cccc(C(=O)NCCc2sc(-c3cccc(C)c3)nc2C)c1 25.1 µM
FC(F)(F)c1cnc(Nc2ccc(N3CCOCC3)cc2)c(Cl)c1 12.6 µM
O=C(c1cccc2ccccc12)N1CCN(c2ccccc2F)CC1 12.6 µM
O=C(NCc1cccc(Cl)c1)c1ccc2c(c1)OCCO2 10 µM
Nc1cccc2c1C(=O)N(Cc1cccc(Cl)c1)C2=O 20 µM
CC(=O)NC(c1cccc(F)c1)c1nc(-c2cccc(C(C)C)c2)cs1 (configuration not stated) 25.1 µM
Cc1ccc(OCc2nc(C#N)c(NCc3ccc4c(c3)OCO4)o2)cc1 11.2 µM
COc1cc(C(=O)NCC2CCCO2)cc(Br)c1OCc1ccccc1 (configuration not stated) 14.1 µM

Potency, inconclusive:
O=C(CSc1ccc2nc(-c3ccccc3)cn2n1)Nc1ccccc1 3.55 µM [activator, partial curve]
O=C(Nc1ccc(F)cc1F)c1ccc(-n2cnc3cccnc32)cc1 20 µM [activator, partial curve]
CC1(C(=O)NS(=O)(=O)Cc2cccc(Cl)c2)CCN1C(=O)CC1CCCC1 (configuration not stated) 35.5 µM [activator, partial curve]
COc1ccc(OC)c(/C(O)=C/C(=O)C(=O)Nc2ccccc2OC)c1 10 µM [activator, partial curve]
CC1=C(C(=O)Nc2cccc(F)c2)C2(CCCCC2)OC1=O 3.55 µM [activator, partial curve]
CCCn1nnc(NC(=O)COc2ccc(Cl)cc2)n1 11.2 µM [activator, partial curve]
COc1ccc(NC(=O)C[C@H]2C(=O)N(Cc3ccccc3)C[C@@H]2c2ccc(OC)cc2)cc1 14.1 µM [activator, single point]
CCn1c(SCC(=O)Nc2ccc3c(c2)OCO3)nc2ccccc21 4.47 µM [activator, partial curve]
COc1cc(OC)c2c(-c3cccc(-c4ccc(O)cc4)c3)cc(=O)oc2c1 35.5 µM [activator, single point]
COc1ccc(NC(=O)COC(=O)CCSc2ccccc2)cc1OC 31.6 µM [activator, single point]
C=CCc1ccc2oc(C(=O)OCC)cc(=O)c2c1O 7.94 µM [activator, partial curve]
Cc1cccc(OCC(=O)Nc2nccs2)c1C 3.55 µM [activator, partial curve]
Cc1ccc(Nc2cc(-n3nc(C)cc3C)ncn2)cc1 3.16 µM [activator, full curve]
COc1ccc(/C=C2\CCc3ccccc3C2=O)cc1Cn1nc(C)cc1C 35.5 µM [activator, single point]
O=C(CCN1c2ccccc2Sc2ccccc21)Nc1ccccc1 31.6 µM [activator, single point]
Cc1ccc(C23CC4CC(CC(NC(=O)NN)(C4)C2)C3)cc1 11.2 µM [activator, partial curve]
Cc1ccc(S(=O)(=O)CCC(=O)OCC(=O)c2ccc(C)c(C)c2)cc1 11.2 µM [activator, partial curve]
C/[N+]([O-])=C\c1ccc([N+](=O)[O-])o1 4.47 µM [activator, full curve]
O=C(C1=C[C@@H](C2CC2)C[C@@H](OCc2ccc(CO)cc2)O1)N1CCN(Cc2ccccc2)CC1 3.55 µM [activator, partial curve]
Cc1ccc(-n2ncc3c(=O)[nH]c(SCC(=O)N4CCCCC4)nc32)cc1 3.98e-05 µM [activator, full curve]
Cn1cccc1C(=O)N/N=C/c1c(Cl)cccc1Cl 35.5 µM [activator, partial curve]
CCNc1nc(SCc2ccccc2)nc(N2CCOCC2)n1 35.5 µM [activator, single point]
O=C(NC(=S)NCc1ccc(Cl)cc1Cl)c1ccco1 35.5 µM [activator, single point]
CCc1cc2c(cc3c(=O)n(CC(=O)N4CCN(C)CC4)ncn32)s1 31.6 µM [activator, single point]
COc1cccc(OCCNc2ccc([N+](=O)[O-])cn2)c1 20 µM [activator, partial curve]
Cc1ccc(-c2ocnc2C(=O)Nc2nc(C)cs2)cc1 2.51 µM [activator, full curve]
CC(C)c1ccc(-c2nnn(CCC(=O)O)n2)cc1 10 µM [activator, single point]
Cc1cc(NC(=O)CSc2c(C)[nH]c3ccccc23)no1 7.08 µM [activator, full curve, poor fit]
Cc1ccc(CSCCNS(=O)(=O)c2ccccc2)cc1 15.8 µM [activator, single point]
O=C(O)CC(Cc1ccccc1)c1ccc2c(c1)OCO2 (configuration not stated) 22.4 µM [activator, single point]
CCOC(=O)c1cn(Cc2ccccc2)nc1-c1ccccc1 12.6 µM [activator, partial curve]
CC1CCN(c2ccc(C(=O)O)cc2N)CC1 35.5 µM [activator, partial curve, poor fit]
CC1CCCCN1c1nc(-c2ccc(C(C)(C)C)cc2)nc2ccccc12 (configuration not stated) 35.5 µM [activator, partial curve, poor fit]
CCOC(=O)c1cc(OC(=O)c2cccc(Cl)c2)n(-c2ccccc2)n1 28.2 µM [activator, partial curve]
CCc1ccc(NC(=O)CSc2nnc(COc3ccc4c(c3)CCCC4)o2)cc1 31.6 µM [activator, partial curve, poor fit]
COC(=O)c1cc(CNC(=O)c2sccc2-c2ccccc2)ccc1OC 35.5 µM [activator, partial curve, poor fit]
S=C(NCc1ccccc1)Nc1ccc(Cl)cc1 14.1 µM [activator, single point]
C[C@H](O)[C@@H]1CN2CCc3c([nH]c4ccc(-c5ccc6c(c5)OCO6)cc34)[C@@H]2C[C@@H]1N(C)C(=O)Nc1cc(Cl)cc(Cl)c1 22.4 µM [activator, single point]
Cc1ccc2scc(N3CCN(c4cccc(C(F)(F)F)c4)CC3)c(=O)c2c1 6.31 µM [activator, partial curve]
CC(C(=O)Nc1ccc(O)cc1C(=O)O)N1C(=O)/C(=C\c2cccs2)SC1=S (configuration not stated) 20 µM [activator, partial curve]
